Data taken from the supplement of paper PMC8728848.
This is one part of the list.

Tests used:
Assay in all cases: glycan array binding signal (z-score within array); higher = stronger binding
Conditions in all cases: glycan notation: IUPAC condensed, linker removed
[1] = biological target: Neu5Ac(a2-3)Gal(b1-4)GlcNAc(b1-2)Man(a1-3)[Neu5Ac(a2-3)Gal(b1-4)GlcNAc(b1-2)Man(a1-6)]Man(b1-4)GlcNAc(b1-4)GlcNAc
Procedure, shortened: (§1)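 Glycan array binding is given as a within-array Z-score, which can be read as non-binding when negative. The arrays, 3228 of them, came from the Consortium for Functional Glycomics database and were retained only where the protein sequence was available. Z-scores were averaged across arrays of the same protein sequence at different concentrations or buffers and across linkers.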

[2] = biological target: Neu5Ac(a2-3)Gal(b1-4)GlcNAc(b1-3)Gal(b1-4)GlcNAc
Procedure, shortened: as §1

[3] = biological target: Neu5Ac(a2-3)Gal(b1-4)GlcNAc(b1-3)Gal(b1-4)GlcNAc(b1-3)Gal(b1-4)GlcNAc
Procedure, shortened: as §1

[4] = biological target: Neu5Ac(a2-3)Gal(b1-4)GlcNAc(b1-3)Gal(b1-4)[Fuc(a1-3)]GlcNAc
Procedure, shortened: as §1

[5] = biological target: Neu5Ac(a2-3)Gal(b1-4)GlcNAc6S
Procedure, shortened: as §1

[6] = biological target: Neu5Ac(a2-3)Gal(b1-4)[Fuc(a1-3)]GlcNAc
Procedure, shortened: as §1

[7] = biological target: Neu5Ac(a2-3)Gal(b1-4)[Fuc(a1-3)]GlcNAc(b1-3)Gal
Procedure, shortened: as §1

[8] = biological target: Neu5Ac(a2-3)Gal(b1-4)[Fuc(a1-3)]GlcNAc(b1-3)Gal(b1-4)GlcNAc
Procedure, shortened: as §1

[9] = biological target: Neu5Ac(a2-3)Gal(b1-4)[Fuc(a1-3)]GlcNAc(b1-3)Gal(b1-4)[Fuc(a1-3)]GlcNAc(b1-3)Gal(b1-4)[Fuc(a1-3)]GlcNAc
Procedure, shortened: as §1

[10] = biological target: Neu5Ac(a2-3)Gal(b1-4)[Fuc(a1-3)]GlcNAc6S
Procedure, shortened: as §1

[11] = biological target: Neu5Ac(a2-3)Gal6S(b1-4)GlcNAc
Procedure, shortened: as §1

[12] = biological target: Neu5Ac(a2-3)Gal6S(b1-4)[Fuc(a1-3)]GlcNAc
Procedure, shortened: as §1

Neu5Ac(a2-3)GalNAc = biological target: Neu5Ac(a2-3)GalNAc
Procedure, shortened: as §1

[13] = biological target: Neu5Ac(a2-3)GalNAc(b1-4)GlcNAc
Procedure, shortened: as §1

[14] = biological target: Neu5Ac(a2-3)[GalNAc(b1-4)]Gal(b1-4)Glc
Procedure, shortened: as §1

[15] = biological target: Neu5Ac(a2-3)[GalNAc(b1-4)]Gal(b1-4)GlcNAc
Procedure, shortened: as §1

[16] = biological target: Neu5Ac(a2-3)[Neu5Ac(a2-6)]GalNAc
Procedure, shortened: as §1

Neu5Ac(a2-6)Gal = biological target: Neu5Ac(a2-6)Gal
Procedure, shortened: as §1

Neu5Ac(a2-6)Gal(b1-4)Glc = biological target: Neu5Ac(a2-6)Gal(b1-4)Glc
Procedure, shortened: as §1

[17] = biological target: Neu5Ac(a2-6)Gal(b1-4)GlcNAc
Procedure, shortened: as §1

[18] = biological target: Neu5Ac(a2-6)Gal(b1-4)GlcNAc(b1-3)Gal(b1-4)GlcNAc
Procedure, shortened: as §1

[19] = biological target: Neu5Ac(a2-6)Gal(b1-4)GlcNAc(b1-3)Gal(b1-4)[Fuc(a1-3)]GlcNAc(b1-3)Gal(b1-4)[Fuc(a1-3)]GlcNAc
Procedure, shortened: as §1

[20] = biological target: Neu5Ac(a2-6)Gal(b1-4)GlcNAc6S
Procedure, shortened: as §1

Neu5Ac(a2-6)GalNAc = biological target: Neu5Ac(a2-6)GalNAc
Procedure, shortened: as §1

[21] = biological target: Neu5Ac(a2-6)GalNAc(b1-4)GlcNAc
Procedure, shortened: as §1

Neu5Ac(a2-8)Neu5Ac = biological target: Neu5Ac(a2-8)Neu5Ac
Procedure, shortened: as §1

[22] = biological target: Neu5Ac(a2-8)Neu5Ac(a2-3)Gal(b1-4)Glc
Procedure, shortened: as §1

[23] = biological target: Neu5Ac(a2-8)Neu5Ac(a2-3)[GalNAc(b1-4)]Gal(b1-4)Glc
Procedure, shortened: as §1

[24] = biological target: Neu5Ac(a2-8)Neu5Ac(a2-8)Neu5Ac
Procedure, shortened: as §1

[25] = biological target: Neu5Ac(a2-8)Neu5Ac(a2-8)Neu5Ac(a2-3)Gal(b1-4)Glc
Procedure, shortened: as §1

[26] = biological target: Neu5Ac(a2-8)Neu5Ac(a2-8)Neu5Ac(a2-3)[GalNAc(b1-4)]Gal(b1-4)Glc
Procedure, shortened: as §1

[27] = biological target: Neu5Ac(a2-8)Neu5Ac(a2-8)Neu5Ac(a2-8)Neu5Ac(a2-3)[GalNAc(b1-4)]Gal(b1-4)Glc
Procedure, shortened: as §1

Neu5Ac(b1-6)GalNAc = biological target: Neu5Ac(b1-6)GalNAc
Procedure, shortened: as §1

[28] = biological target: Neu5Ac(b2-6)Gal(b1-4)GlcNAc
Procedure, shortened: as §1

[29] = biological target: Neu5Ac9Ac(a2-6)Gal(b1-4)GlcNAc
Procedure, shortened: as §1

[30] = biological target: Neu5Gc(a2-3)Gal(b1-3)GlcNAc
Procedure, shortened: as §1

[31] = biological target: Neu5Gc(a2-3)Gal(b1-3)[Fuc(a1-4)]GlcNAc
Procedure, shortened: as §1

Neu5Gc(a2-3)Gal(b1-4)Glc = biological target: Neu5Gc(a2-3)Gal(b1-4)Glc
Procedure, shortened: as §1

[32] = biological target: Neu5Gc(a2-3)Gal(b1-4)GlcNAc
Procedure, shortened: as §1

[33] = biological target: Neu5Gc(a2-3)Gal(b1-4)[Fuc(a1-3)]GlcNAc
Procedure, shortened: as §1

[34] = biological target: Neu5Gc(a2-6)Gal(b1-4)GlcNAc
Procedure, shortened: as §1

Neu5Gc(a2-6)GalNAc = biological target: Neu5Gc(a2-6)GalNAc
Procedure, shortened: as §1

B1: LKITALY (Gibberella zeae) (protein)
chain: MGNFHESSNNIWLEDGHILHAECGNGEGDYVESTLDLDYYIGNDDGSFSWGGENFSGSASNITLDIEGDDNIPVLRAELNPMDGDPVEANVNLSERIGNDCGTLIFLA
Q: How did the “glycan array binding signal (z-score)” value [1] turn out when B1 was run?
A: The value was -0.346.

Q: And the “glycan array binding signal (z-score)” value [2]?
A: The value was 1.07.

Q: And the “glycan array binding signal (z-score)” value [3]?
A: Its value is 3.85.

Q: And the “glycan array binding signal (z-score)” value [4]?
A: Its value is 2.02.

Q: What about the “glycan array binding signal (z-score)” value [5] of the same binder?
A: The value was 3.33.

Q: And the “glycan array binding signal (z-score)” value [6]?
A: The value was -0.222.

Q: And the “glycan array binding signal (z-score)” value [7]?
A: Its value is -0.352.

Q: What about the “glycan array binding signal (z-score)” value [8] of the same binder?
A: Its value is -0.353.

Q: What about the “glycan array binding signal (z-score)” value [9] of the same binder?
A: Its value is -0.363.

Q: And the “glycan array binding signal (z-score)” value [10]?
A: Its value is -0.348.

Q: And the “glycan array binding signal (z-score)” value [11]?
A: The value was -0.363.

Q: And the “glycan array binding signal (z-score)” value [12]?
A: Its value is -0.362.

Q: What about the “glycan array binding signal (z-score)” value (Neu5Ac(a2-3)GalNAc) of the same binder?
A: The value was -0.365.

Q: What about the “glycan array binding signal (z-score)” value [13] of the same binder?
A: Its value is -0.354.

Q: What about the “glycan array binding signal (z-score)” value [14] of the same binder?
A: Its value is -0.356.

Q: And the “glycan array binding signal (z-score)” value [15]?
A: The value was -0.346.

Q: And the “glycan array binding signal (z-score)” value [16]?
A: The value was -0.354.

Q: What about the “glycan array binding signal (z-score)” value (Neu5Ac(a2-6)Gal) of the same binder?
A: The value was -0.36.

Q: And the “glycan array binding signal (z-score)” value (Neu5Ac(a2-6)Gal(b1-4)Glc)?
A: The value was 1.43.

Q: And the “glycan array binding signal (z-score)” value [17]?
A: Its value is -0.361.

Q: What about the “glycan array binding signal (z-score)” value [18] of the same binder?
A: Its value is -0.108.

Q: What about the “glycan array binding signal (z-score)” value [19] of the same binder?
A: The value was -0.338.

Q: And the “glycan array binding signal (z-score)” value [20]?
A: The value was -0.371.

Q: What about the “glycan array binding signal (z-score)” value (Neu5Ac(a2-6)GalNAc) of the same binder?
A: Its value is -0.352.

Q: What about the “glycan array binding signal (z-score)” value [21] of the same binder?
A: Its value is -0.356.

Q: And the “glycan array binding signal (z-score)” value (Neu5Ac(a2-8)Neu5Ac)?
A: Its value is -0.355.

Q: What about the “glycan array binding signal (z-score)” value [22] of the same binder?
A: Its value is 3.41.

Q: What about the “glycan array binding signal (z-score)” value [23] of the same binder?
A: The value was -0.355.

Q: What about the “glycan array binding signal (z-score)” value [24] of the same binder?
A: Its value is -0.346.

Q: And the “glycan array binding signal (z-score)” value [25]?
A: Its value is 3.32.

Q: What about the “glycan array binding signal (z-score)” value [26] of the same binder?
A: The value was -0.349.

Q: What about the “glycan array binding signal (z-score)” value [27] of the same binder?
A: Its value is -0.371.

Q: And the “glycan array binding signal (z-score)” value (Neu5Ac(b1-6)GalNAc)?
A: Its value is -0.363.

Q: What about the “glycan array binding signal (z-score)” value [28] of the same binder?
A: The value was -0.366.

Q: And the “glycan array binding signal (z-score)” value [29]?
A: The value was -0.357.

Q: What about the “glycan array binding signal (z-score)” value [30] of the same binder?
A: The value was -0.348.

Q: What about the “glycan array binding signal (z-score)” value [31] of the same binder?
A: Its value is -0.358.

Q: What about the “glycan array binding signal (z-score)” value (Neu5Gc(a2-3)Gal(b1-4)Glc) of the same binder?
A: The value was 3.32.

Q: And the “glycan array binding signal (z-score)” value [32]?
A: Its value is 3.69.

Q: What about the “glycan array binding signal (z-score)” value [33] of the same binder?
A: Its value is -0.319.

Q: And the “glycan array binding signal (z-score)” value [34]?
A: Its value is -0.356.

Q: What about the “glycan array binding signal (z-score)” value (Neu5Gc(a2-6)GalNAc) of the same binder?
A: Its value is -0.34.
